Assay results taken from the supplement of paper PMC8728848.
The list shows a part of the results.

Experiments:
Assay in all cases: glycan array binding signal (z-score within array); higher = stronger binding
Conditions in all cases: glycan notation: IUPAC condensed, linker removed
[1] = biological target: Gal(b1-3)GlcNAc(b1-2)Man(a1-3)[Gal(b1-3)GlcNAc(b1-2)Man(a1-6)]Man(b1-4)GlcNAc(b1-4)GlcNAc
In short: (§1)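 Glycan array data were curated from 3228 arrays in the Consortium for Functional Glycomics database and kept only where the protein sequence was available. Glycan names were converted to IUPAC-condensed notation, and columns mapping to the same glycan were averaged. The binding signal is a within-array Z-score, averaged across arrays of the same protein sequence at different concentrations or buffers and across linkers. Negative Z-scores can be read as non-binding.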

[2] = biological target: Gal(b1-3)GlcNAc(b1-2)Man(a1-3)[Gal(b1-3)GlcNAc(b1-2)Man(a1-6)]Man(b1-4)GlcNAc(b1-4)[Fuc(a1-6)]GlcNAc
In short: as §1

[3] = biological target: Gal(b1-3)GlcNAc(b1-2)Man(a1-3)[GlcNAc(b1-4)][Gal(b1-3)GlcNAc(b1-2)Man(a1-6)]Man(b1-4)GlcNAc(b1-4)GlcNAc
In short: as §1

[4] = biological target: Gal(b1-3)GlcNAc(b1-2)[Gal(b1-3)GlcNAc(b1-6)]Man(a1-6)[Gal(b1-3)GlcNAc(b1-2)Man(a1-3)]Man(b1-4)GlcNAc(b1-4)GlcNAc
In short: as §1

[5] = biological target: Gal(b1-3)GlcNAc(b1-3)Gal(b1-3)GlcNAc
In short: as §1

[6] = biological target: Gal(b1-3)GlcNAc(b1-3)Gal(b1-4)Glc
In short: as §1

[7] = biological target: Gal(b1-3)GlcNAc(b1-3)Gal(b1-4)GlcNAc
In short: as §1

[8] = biological target: Gal(b1-3)GlcNAc(b1-3)Gal(b1-4)GlcNAc(b1-2)Man(a1-3)[Gal(b1-3)GlcNAc(b1-3)Gal(b1-4)GlcNAc(b1-2)Man(a1-6)]Man(b1-4)GlcNAc(b1-4)GlcNAc
In short: as §1

[9] = biological target: Gal(b1-3)GlcNAc(b1-3)Gal(b1-4)GlcNAc(b1-2)[Gal(b1-3)GlcNAc(b1-3)Gal(b1-4)GlcNAc(b1-6)]Man(a1-6)[Gal(b1-3)GlcNAc(b1-3)Gal(b1-4)GlcNAc(b1-2)Man(a1-3)]Man(b1-4)GlcNAc(b1-4)[Fuc(a1-6)]GlcNAc
In short: as §1

[10] = biological target: Gal(b1-3)GlcNAc(b1-3)Gal(b1-4)GlcNAc(b1-3)Gal(b1-4)GlcNAc(b1-2)[Gal(b1-3)GlcNAc(b1-3)Gal(b1-4)GlcNAc(b1-3)Gal(b1-4)GlcNAc(b1-6)]Man(a1-6)[Gal(b1-3)GlcNAc(b1-3)Gal(b1-4)GlcNAc(b1-3)Gal(b1-4)GlcNAc(b1-2)Man(a1-3)]Man(b1-4)GlcNAc(b1-4)[Fuc(a1-6)]GlcNAc
In short: as §1

[11] = biological target: Gal(b1-3)GlcNAc(b1-3)Gal(b1-4)GlcNAc(b1-6)[Gal(b1-3)GlcNAc(b1-3)]Gal(b1-4)Glc
In short: as §1

[12] = biological target: Gal(b1-3)GlcNAc(b1-3)Gal(b1-4)[Fuc(a1-3)]GlcNAc
In short: as §1

[13] = biological target: Gal(b1-3)GlcNAc(b1-3)Gal(b1-4)[Fuc(a1-3)]GlcNAc(b1-6)[Gal(b1-3)GlcNAc(b1-3)]Gal(b1-4)Glc
In short: as §1

[14] = biological target: Gal(b1-3)GlcNAc(b1-3)GalNAc
In short: as §1

[15] = biological target: Gal(b1-3)GlcNAc(b1-6)Gal(b1-4)GlcNAc
In short: as §1

[16] = biological target: Gal(b1-3)GlcNAc(b1-6)GalNAc
In short: as §1

[17] = biological target: Gal(b1-3)GlcNAc(b1-6)[Gal(b1-3)]GalNAc
In short: as §1

Gal(b1-3)GlcNAc6S = biological target: Gal(b1-3)GlcNAc6S
In short: as §1

[18] = biological target: Gal(b1-3)[Fuc(a1-4)]GlcNAc
In short: as §1

[19] = biological target: Gal(b1-3)[Fuc(a1-4)]GlcNAc(b1-2)Man
In short: as §1

[20] = biological target: Gal(b1-3)[Fuc(a1-4)]GlcNAc(b1-2)Man(a1-3)[Gal(b1-3)[Fuc(a1-4)]GlcNAc(b1-2)Man(a1-6)]Man(b1-4)GlcNAc(b1-4)[Fuc(a1-6)]GlcNAc
In short: as §1

[21] = biological target: Gal(b1-3)[Fuc(a1-4)]GlcNAc(b1-3)Gal(b1-3)[Fuc(a1-4)]GlcNAc
In short: as §1

[22] = biological target: Gal(b1-3)[Fuc(a1-4)]GlcNAc(b1-3)Gal(b1-4)[Fuc(a1-3)]GlcNAc
In short: as §1

[23] = biological target: Gal(b1-3)[Fuc(a1-4)]GlcNAc(b1-6)GalNAc
In short: as §1

[24] = biological target: Gal(b1-3)[GlcNAc(b1-6)]GalNAc
In short: as §1

[25] = biological target: Gal(b1-3)[Neu5Ac(a2-6)]GalNAc
In short: as §1

[26] = biological target: Gal(b1-3)[Neu5Ac(a2-6)]GlcNAc(b1-4)Gal(b1-4)Glc
In short: as §1

[27] = biological target: Gal(b1-3)[Neu5Ac(b2-6)]GalNAc
In short: as §1

Gal(b1-4)Gal = biological target: Gal(b1-4)Gal
In short: as §1

[28] = biological target: Gal(b1-4)GalNAc(a1-3)[Fuc(a1-2)]Gal(b1-4)GlcNAc
In short: as §1

[29] = biological target: Gal(b1-4)GalNAc(b1-3)[Fuc(a1-2)]Gal(b1-4)GlcNAc
In short: as §1

Gal(b1-4)Glc = biological target: Gal(b1-4)Glc
In short: as §1

Gal(b1-4)Glc6S = biological target: Gal(b1-4)Glc6S
In short: as §1

Gal(b1-4)GlcNAc = biological target: Gal(b1-4)GlcNAc
In short: as §1

[30] = biological target: Gal(b1-4)GlcNAc(a1-6)Gal(b1-4)GlcNAc
In short: as §1

Gal(b1-4)GlcNAc(b1-2)Man = biological target: Gal(b1-4)GlcNAc(b1-2)Man
In short: as §1

[31] = biological target: Gal(b1-4)GlcNAc(b1-2)Man(a1-3)Man(b1-4)GlcNAc(b1-4)GlcNAc
In short: as §1

[32] = biological target: Gal(b1-4)GlcNAc(b1-2)Man(a1-3)[Gal(b1-4)GlcNAc(b1-2)Man(a1-6)]Man(b1-4)GlcNAc(b1-4)GlcNAc
In short: as §1

[33] = biological target: Gal(b1-4)GlcNAc(b1-2)Man(a1-3)[Gal(b1-4)GlcNAc(b1-2)Man(a1-6)]Man(b1-4)GlcNAc(b1-4)[Fuc(a1-6)]GlcNAc
In short: as §1

[34] = biological target: Gal(b1-4)GlcNAc(b1-2)Man(a1-3)[Gal(b1-4)GlcNAc(b1-2)Man(a1-6)][Gal(b1-4)GlcNAc(b1-4)]Man(b1-4)GlcNAc(b1-4)[Fuc(a1-6)]GlcNAc
In short: as §1

[35] = biological target: Gal(b1-4)GlcNAc(b1-2)Man(a1-3)[Gal(b1-4)GlcNAc(b1-2)Man(a1-6)][GlcNAc(b1-4)]Man(b1-4)GlcNAc(b1-4)[Fuc(a1-6)]GlcNAc
In short: as §1

[36] = biological target: Gal(b1-4)GlcNAc(b1-2)Man(a1-3)[GlcNAc(b1-2)Man(a1-6)]Man(b1-4)GlcNAc(b1-4)GlcNAc
In short: as §1

[37] = biological target: Gal(b1-4)GlcNAc(b1-2)Man(a1-3)[GlcNAc(b1-4)][Gal(b1-4)GlcNAc(b1-2)Man(a1-6)]Man(b1-4)GlcNAc(b1-4)GlcNAc
In short: as §1

[38] = biological target: Gal(b1-4)GlcNAc(b1-2)Man(a1-3)[Man(a1-6)]Man(b1-4)GlcNAc(b1-4)GlcNAc
In short: as §1

[39] = biological target: Gal(b1-4)GlcNAc(b1-2)Man(a1-6)Man(b1-4)GlcNAc(b1-4)GlcNAc
In short: as §1

B1: CFEM-PPm (Pichia pastoris), F2QPV1 (protein)
chain: AVATPPACLLACAAEVVKESSDCDALNNIQCICENEGSAIHACLESTCPDGLSSTALQSFEDVCE
glycan array binding signal (z-score) [1]: 0.199
glycan array binding signal (z-score) [2]: -0.248
glycan array binding signal (z-score) [3]: -0.033
glycan array binding signal (z-score) [4]: -0.203
glycan array binding signal (z-score) [5]: -0.096
glycan array binding signal (z-score) [6]: -0.32
glycan array binding signal (z-score) [7]: -0.447
glycan array binding signal (z-score) [8]: -0.305
glycan array binding signal (z-score) [9]: 0.082
glycan array binding signal (z-score) [10]: 0.301
glycan array binding signal (z-score) [11]: -0.017
glycan array binding signal (z-score) [12]: -0.126
glycan array binding signal (z-score) [13]: 0.036
glycan array binding signal (z-score) [14]: -0.286
glycan array binding signal (z-score) [15]: -0.102
glycan array binding signal (z-score) [16]: -0.239
glycan array binding signal (z-score) [17]: 1.12
glycan array binding signal (z-score) (Gal(b1-3)GlcNAc6S): 0.044
glycan array binding signal (z-score) [18]: -0.12
glycan array binding signal (z-score) [19]: 0.224
glycan array binding signal (z-score) [20]: -0.167
glycan array binding signal (z-score) [21]: -0.034
glycan array binding signal (z-score) [22]: -0.17
glycan array binding signal (z-score) [23]: 0.172
glycan array binding signal (z-score) [24]: 1.5
glycan array binding signal (z-score) [25]: 7.18
glycan array binding signal (z-score) [26]: -0.3
glycan array binding signal (z-score) [27]: 0.453
glycan array binding signal (z-score) (Gal(b1-4)Gal): -0.433
glycan array binding signal (z-score) [28]: -0.175
glycan array binding signal (z-score) [29]: -0.141
glycan array binding signal (z-score) (Gal(b1-4)Glc): -0.356
glycan array binding signal (z-score) (Gal(b1-4)Glc6S): 0.117
glycan array binding signal (z-score) (Gal(b1-4)GlcNAc): -0.105
glycan array binding signal (z-score) [30]: 0.757
glycan array binding signal (z-score) (Gal(b1-4)GlcNAc(b1-2)Man): -0.158
glycan array binding signal (z-score) [31]: -0.373
glycan array binding signal (z-score) [32]: -0.368
glycan array binding signal (z-score) [33]: -0.288
glycan array binding signal (z-score) [34]: -0.285
glycan array binding signal (z-score) [35]: -0.329
glycan array binding signal (z-score) [36]: -0.391
glycan array binding signal (z-score) [37]: -0.509
glycan array binding signal (z-score) [38]: 0.03
glycan array binding signal (z-score) [39]: -0.272
